Article PMC4336329 (PLoS ONE, 2015)
Out of some 310,000 compounds screened, about 2,200 (0.71%) showed an effect of 50% or more. Effects have a minus sign here. The list shows a part of the results.

Each molecule was assayed against human ether-à-go-go-related gene (hERG) potassium channel (human, UniProt Q12809) (assay: primary screen, population patch clamp on CHO cells stably expressing hERG).
Chain of human ether-à-go-go-related gene (hERG) potassium channel (Q12809 whole entry, looked up): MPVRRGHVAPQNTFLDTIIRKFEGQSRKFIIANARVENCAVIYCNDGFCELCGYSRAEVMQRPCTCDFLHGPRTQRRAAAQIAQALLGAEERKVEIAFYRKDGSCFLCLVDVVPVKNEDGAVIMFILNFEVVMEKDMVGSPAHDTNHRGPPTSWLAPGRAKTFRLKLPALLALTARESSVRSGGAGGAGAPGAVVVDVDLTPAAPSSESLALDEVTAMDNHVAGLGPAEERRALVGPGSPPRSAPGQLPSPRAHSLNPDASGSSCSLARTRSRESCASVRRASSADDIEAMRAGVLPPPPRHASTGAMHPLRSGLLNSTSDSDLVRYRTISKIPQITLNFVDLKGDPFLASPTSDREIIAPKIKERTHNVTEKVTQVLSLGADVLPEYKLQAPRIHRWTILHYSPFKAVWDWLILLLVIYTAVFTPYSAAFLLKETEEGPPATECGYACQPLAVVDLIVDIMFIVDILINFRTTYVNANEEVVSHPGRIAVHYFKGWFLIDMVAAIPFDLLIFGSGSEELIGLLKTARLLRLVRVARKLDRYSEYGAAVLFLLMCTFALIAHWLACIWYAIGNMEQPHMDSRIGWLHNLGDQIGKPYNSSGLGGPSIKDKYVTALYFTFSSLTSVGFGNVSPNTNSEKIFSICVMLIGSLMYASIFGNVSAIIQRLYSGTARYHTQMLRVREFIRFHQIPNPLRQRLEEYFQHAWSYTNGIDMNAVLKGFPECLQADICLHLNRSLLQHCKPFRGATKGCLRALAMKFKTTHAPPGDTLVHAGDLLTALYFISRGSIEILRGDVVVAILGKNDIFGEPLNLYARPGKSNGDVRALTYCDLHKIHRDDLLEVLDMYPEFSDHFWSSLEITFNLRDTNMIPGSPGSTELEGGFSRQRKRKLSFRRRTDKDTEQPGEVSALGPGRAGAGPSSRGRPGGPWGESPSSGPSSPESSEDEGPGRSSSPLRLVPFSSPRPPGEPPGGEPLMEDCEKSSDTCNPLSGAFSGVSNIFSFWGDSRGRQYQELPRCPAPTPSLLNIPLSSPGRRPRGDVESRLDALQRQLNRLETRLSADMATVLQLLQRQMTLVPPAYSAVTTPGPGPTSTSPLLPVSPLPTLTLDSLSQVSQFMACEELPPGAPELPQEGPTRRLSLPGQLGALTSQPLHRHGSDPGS

Going from `COC(=O)C1C(O)=C(C(C)=Nc2cccc3ccccc23)C(=O)CC1(C)C` (centres unmarked) to `COc1cccc(CNC(=O)CC(NC(C)=O)c2ccccc2)c1` (centres unmarked), the “hERG current change (%, negative = inhibition) at 1uM” value falls from 12.6% to 2.13%.

Compared with `O=C(O)CCC(=O)Nc1ccc(Cc2ccc(NC(=O)CCC(=O)O)cc2)cc1`, `NS(=O)(=O)c1ccc(NS(=O)(=O)c2ccc(NC(=O)C3CC3)cc2)cc1` is higher in “hERG current change (%, negative = inhibition) at 1uM” value: 10.4% for the first, 14.4% for the second.

Compared with `Cc1cc(NC(=O)C2CC(c3ccccc3Cl)=NO2)no1` (centres unmarked), `O=[N+]([O-])c1ccc(O)c(C2=NNC(c3ccccc3F)C2)c1` (centres unmarked) is lower in “hERG current change (%, negative = inhibition) at 1uM” value: 15.3% for the first, 3% for the second.

Compared with `Cc1ccc2[nH]c3c(c2c1)CN(C(=O)CN1CCN(Cc2ccc4c(c2)OCO4)CC1)CC3`, `Cc1ccc(C2(C)NC(=O)N(CC(=O)N3CCN(S(=O)(=O)c4cccc(F)c4)CC3)C2=O)cc1` (centres unmarked) is lower in “hERG current change (%, negative = inhibition) at 1uM” value: -1.37% for the first, -18.1% for the second.

First: O=C1C=C(O)CC(c2ccc(Cl)cc2)C1 (centres unmarked)
Second: N/C(=N\OC(=O)c1cc(Cl)ccc1Cl)c1ccncc1
The “hERG current change (%, negative = inhibition) at 1uM” value of the first is higher: 12.3% for the first, 3.11% for the second.

`COc1cccc(/C=C/c2nc(C#N)c(NCC(C)C)o2)c1` and `COC(=O)c1cc(NC(=O)c2ccc(OC)cc2)c(=O)oc1C` are the same in “hERG current change (%, negative = inhibition) at 1uM” value: 14% for the first, 14% for the second.

Going from `CCOc1ccc(S(=O)(=O)Nc2cc(S(=O)(=O)N(CC)CC)ccc2N2CCCC2)cc1` to `COc1ccc(C(CNC(=O)c2ccc(S(=O)(=O)N3CCCC3)cc2)N(C)C)cc1OC` (centres unmarked), the “hERG current change (%, negative = inhibition) at 1uM” value falls from 12% to 11.9%.

Compared with `COc1cccc(C(=O)NCCN2CCOCC2)c1`, `COc1ccc(C(=O)NCCCN2CCOCC2)cc1OC` is lower in “hERG current change (%, negative = inhibition) at 1uM” value: 9.04% for the first, 5.13% for the second.

Compared with `COc1ccc(C(C2C(=O)CC(C)(C)CC2=O)C2C(=O)CC(C)(C)CC2=O)cc1`, `COc1ccc(-n2c(C)c3c(OC)cccc(=O)c3c2C)cc1` is lower in “hERG current change (%, negative = inhibition) at 1uM” value: 4.1% for the first, 0.316% for the second.

First: CC(NC(=O)COC(=O)C1CCN(c2ccc(C(F)(F)F)cn2)CC1)c1ccc(Br)cc1 (centres unmarked)
Second: COCCNC(=O)C1CCN(C(=O)c2cc3sccc3n2Cc2ccc(F)cc2)CC1
The “hERG current change (%, negative = inhibition) at 1uM” value of the first is higher: 1.22% for the first, -3.16% for the second.

First: COC(CNC(=O)c1ccc2nc(-c3ccccc3)c(-c3ccccc3)nc2c1)OC
Second: Cc1onc(-c2ccccc2)c1C(=O)c1c[nH]c(C(=O)NCc2ccccn2)c1
The “hERG current change (%, negative = inhibition) at 1uM” value of the first is higher: 11.5% for the first, 8.37% for the second.

First: CCCCc1cc(O)c(CCCC)c(O)c1
Second: C=CCOc1cccc(C2C(C(=O)c3ccco3)=C(O)C(=O)N2CCN(CC)CC)c1 (centres unmarked)
The “hERG current change (%, negative = inhibition) at 1uM” value of the first is lower: -9.37% for the first, 5.68% for the second.

Going from `COc1ccc(NCc2cccnc2)cc1` to `COc1ccc(CNC(=O)C(C)Sc2ccc(C)cc2)cc1` (centres unmarked), the “hERG current change (%, negative = inhibition) at 1uM” value falls from 18.1% to 10.2%.

Compared with `CCc1cc(=O)oc2c3c(cc(OCC(=O)NCCN4CCOCC4)c12)OC(C)(C)CC3`, `COc1cc(C)c(Br)cc1S(=O)(=O)NCCN1CCOCC1` is higher in “hERG current change (%, negative = inhibition) at 1uM” value: -10.6% for the first, 13.3% for the second.

Going from `CC(CCc1ccccc1)NC(=O)COC(=O)C(CCC(N)=O)NC(=O)c1ccc(F)cc1` (centres unmarked) to `NC(=O)c1ccc(NC(=O)COc2cccc3ccccc23)cc1`, the “hERG current change (%, negative = inhibition) at 1uM” value rises from 6.67% to 18.2%.

Compared with `CCOC(=O)C1(CC2CCCCO2)CCN(S(=O)(=O)c2c(C)nn(C)c2C)CC1` (centres unmarked), `CCOC(=O)N1CCC(NC(=O)c2ccc3c(c2)ncn3C2CCCC2)CC1` is lower in “hERG current change (%, negative = inhibition) at 1uM” value: 15.5% for the first, 5.91% for the second.

Compared with `CCOc1ccccc1CNCCNC(=O)c1nonc1N.Cl`, `c1ccc(COc2ccccc2CNc2nn[nH]n2)cc1` is higher in “hERG current change (%, negative = inhibition) at 1uM” value: 10.9% for the first, 13% for the second.

Compared with `Cc1c(NC(=O)CSc2ccccc2Cl)c(=O)n(-c2ccccc2)n1C`, `CCn1c(CNC(=O)COc2ccc(C(C)C)cc2)nnc1SCC(=O)Nc1ccccc1` is lower in “hERG current change (%, negative = inhibition) at 1uM” value: 8.98% for the first, -7.27% for the second.

First: CCN(Cc1ccccc1)C(c1ccc(C(F)(F)F)cc1)c1nnnn1C(C)(C)C (centres unmarked)
Second: CN(C(=O)Cc1c(C(=O)O)n(C)c2ccccc12)c1cccc(C(F)(F)F)c1
The “hERG current change (%, negative = inhibition) at 1uM” value of the first is lower: 1.75% for the first, 16% for the second.

First: COCCn1nnnc1SCC(=O)Nc1ccc2c(c1)OCO2
Second: CC(C)CNC(=O)COCc1cc(-c2ccc3c(c2)OCO3)on1
The “hERG current change (%, negative = inhibition) at 1uM” value of the first is lower: -1.39% for the first, 10.6% for the second.

Compared with `CCOC(=O)c1ccc(N2C(=O)C3CCCN3C2=S)cc1` (centres unmarked), `CC1CC(C)CN(S(=O)(=O)c2cccc(C(=O)OCCN3CCCC3=O)c2)C1` (centres unmarked) is lower in “hERG current change (%, negative = inhibition) at 1uM” value: 6.14% for the first, 1.63% for the second.

First: CCN(CC(=O)Nc1ccccc1OC)CC(=O)Nc1c(Cl)ccc(C)c1Cl
Second: CC[C@@]1(c2ccccc2)C(=O)N(C(=O)OC)N1C(=O)OC
The “hERG current change (%, negative = inhibition) at 1uM” value of the first is lower: 10.3% for the first, 19.7% for the second.

Compared with `Cc1c(C)n2c(SCC(=O)N3CCOCC3)nnc2[nH]c1=O`, `CC1CCN(c2ccc([N+](=O)[O-])cc2C(=O)N2CCOCC2)CC1` is higher in “hERG current change (%, negative = inhibition) at 1uM” value: -3.22% for the first, 8.6% for the second.

First: CCCC(=O)Nc1ccc(C2C(=O)c3ccccc3C2=O)cc1
Second: O=C(CCc1ccccc1Cl)Nc1ccc(S(=O)(=O)N2CCOCC2)cc1
The “hERG current change (%, negative = inhibition) at 1uM” value of the first is higher: 19.2% for the first, 8.24% for the second.

First: O=C(Nc1ccc(F)cc1)Nc1ccccc1N1CCCCC1
Second: COc1ccc(/C=C/C(=O)NC(=S)Nc2ccc(N3CCN(C(C)=O)CC3)cc2)cc1
The “hERG current change (%, negative = inhibition) at 1uM” value of the first is higher: 11.4% for the first, 8.88% for the second.

Compared with `CN(C1CCCCC1)C(CNS(=O)(=O)c1ccccc1)c1ccccc1` (centres unmarked), `CC(=O)c1cccn1S(=O)(=O)c1ccccc1` is lower in “hERG current change (%, negative = inhibition) at 1uM” value: 12.3% for the first, 2.43% for the second.

Compared with `O=C(c1ccc(Br)o1)N1CCN=C1SCc1cccnc1`, `CC(=O)n1nc(-c2ccco2)nc1SCc1ccccc1` is higher in “hERG current change (%, negative = inhibition) at 1uM” value: 3.64% for the first, 6.39% for the second.

First: Cc1cccc(N(Cc2cc3ccc(C)cc3[nH]c2=O)S(=O)(=O)c2ccccc2)c1
Second: COc1cccc(C(=O)Oc2cc(N)n(S(=O)(=O)c3ccc(C)cc3)n2)c1OC
The “hERG current change (%, negative = inhibition) at 1uM” value of the first is higher: 10.6% for the first, 7.27% for the second.

First: CCSc1nnc(-c2cccc(S(=O)(=O)N(C)C)c2)n1-c1cc(OC)ccc1OC
Second: COc1cc(C(C)=O)ccc1Oc1ncnc2c1cnn2-c1ccccc1
The “hERG current change (%, negative = inhibition) at 1uM” value of the first is lower: -15.3% for the first, 5.49% for the second.

Going from `O=C(O)C1C2C=CC(O2)C1C(=O)Nc1cccc(C(F)(F)F)c1` (centres unmarked) to `O=C(Nc1ccc(O)cc1)c1cccc(Oc2ccc([N+](=O)[O-])cc2)c1`, the “hERG current change (%, negative = inhibition) at 1uM” value falls from 14.3% to 11.4%.

First: Cc1ccc([N+](=O)[O-])cc1N/C=C1\CCCCC1=O
Second: Cc1ccccc1N=C1c2cc([N+](=O)[O-])ccc2-c2ncccc21
The “hERG current change (%, negative = inhibition) at 1uM” value of the first is higher: 16.5% for the first, 11.2% for the second.

Compared with `O=C(NCCCNC(=O)c1ccccc1Cl)c1cnccn1`, `O=C(NCC1CCCO1)c1csc(Nc2cccc3ccccc23)n1` (centres unmarked) is lower in “hERG current change (%, negative = inhibition) at 1uM” value: 10.4% for the first, -2.49% for the second.

First: CC(=O)CC(=O)Nc1nc(C)cc(C)n1
Second: CCn1cc(C(=O)NCCOC)c(=O)c2ccc(C)nc21
The “hERG current change (%, negative = inhibition) at 1uM” value of the first is higher: 12.1% for the first, 7.87% for the second.

First: O=C(CSc1nnc(N2CCCC2)n1-c1ccccc1Cl)N1CCN(c2ccccn2)CC1
Second: COc1ccccc1C(=O)OCC(=O)N1CCC(Cc2ccccc2)CC1
The “hERG current change (%, negative = inhibition) at 1uM” value of the first is lower: -0.848% for the first, 9.62% for the second.

Compared with `CCCc1nnc(NC(=O)CCC(=O)NC2CCCc3ccccc32)s1` (centres unmarked), `Cc1c(C(=O)NCCCN2CCCC2=O)oc2ccccc12` is lower in “hERG current change (%, negative = inhibition) at 1uM” value: 8.75% for the first, 0.304% for the second.

Compared with `O=C(N=C1SC2CS(=O)(=O)CC2N1c1cccc(Cl)c1Cl)C1CC1` (centres unmarked), `COc1ccc(N2C(=O)NC(=O)/C(=C/c3cccc(OC(=O)c4cccs4)c3)C2=O)cc1Cl` is higher in “hERG current change (%, negative = inhibition) at 1uM” value: 9.41% for the first, 12% for the second.

First: CCOc1nc(-c2ccc(Cl)cc2)nc2ccccc12
Second: Brc1ccc(-c2nc(-c3ccccc3)no2)o1
The “hERG current change (%, negative = inhibition) at 1uM” value of the first is lower: 5.94% for the first, 12.8% for the second.

First: O=[N+]([O-])/C=C/c1cc2ccccc2[nH]1
Second: O=[N+]([O-])c1ccccc1SNc1ccc(Br)cn1
The “hERG current change (%, negative = inhibition) at 1uM” value of the first is lower: 17% for the first, 18.4% for the second.

First: O=C(c1ccc(OCC[NH+]2CCCCC2)cc1)c1c(-c2ccc(O)cc2)sc2cc(O)ccc12.[Cl-]
Second: O=C(NCCc1ccc(Cl)cc1)c1ccc2nc(N3CCOCC3)sc2c1
The “hERG current change (%, negative = inhibition) at 1uM” value of the first is lower: 9.06% for the first, 11.9% for the second.

Compared with `CCOc1[nH]n(-c2ccccc2)c(=O)c1C=Nc1ccc(F)cc1F`, `O=c1c2ccccc2[nH]c(=S)n1CCC1=CCCCC1` is lower in “hERG current change (%, negative = inhibition) at 1uM” value: 14.8% for the first, 13.4% for the second.

Compared with `CC(C)CNC(=S)NNC(=O)c1ccco1`, `COc1nc(C)ccc1-c1noc(-c2ccco2)n1` is higher in “hERG current change (%, negative = inhibition) at 1uM” value: -18.3% for the first, 11.3% for the second.

Compared with `Cc1ccc(C2=NN(C(=O)CN3C(=O)c4ccccc4S3(=O)=O)C(c3ccco3)C2)cc1` (centres unmarked), `Cn1cc(CN2CCC(CO)(CCCc3ccccc3)CC2)c(-c2ccccc2)n1` is lower in “hERG current change (%, negative = inhibition) at 1uM” value: 6.24% for the first, -33.6% for the second.

Compared with `Cn1c(N)c(C(=O)COC(=O)CCCN2C(=O)c3ccccc3C2=O)c(=O)n(C)c1=O`, `CCC(C)(C)NC(=O)CN(C(=O)c1snc(C(N)=O)c1N)c1ccc2c(c1)OCCO2` is higher in “hERG current change (%, negative = inhibition) at 1uM” value: 3.78% for the first, 13.1% for the second.

First: NS(=O)(=O)c1ccc(NC(=O)COC(=O)C23CC4CC(CC(C4)C2)C3)cc1
Second: Cc1cc(-c2nnc3n2N=C(c2ccc(F)cc2)CS3)n[nH]1
The “hERG current change (%, negative = inhibition) at 1uM” value of the first is higher: 9.84% for the first, -11.5% for the second.

In the case of `Cn1cc(-c2cccc(Cl)c2)cc(C#N)c1=O`, the “hERG current change (%, negative = inhibition) at 1uM” value is reported as -1.86%.
